# Reference: PubChem BioAssay (Tox21)
# Several values for one entry are separate records, joined by “and”; a condition that tells them apart may be missing. Equal values may be shown once. Inconclusive means that the source gave no clear call. Such entries were picked first, then a sample of the others. A potency beside an inconclusive call is a rough fit, not a confirmed value. Some compounds were tested as several samples or in several runs, with calls that do not always agree. Activity calls are given as the source filed them. Unless noted, calls come from the whole dose curve; as a rule, active = well fitted curve in the direction sought with a large enough effect in the repeat runs; inconclusive = weak or mixed curves; inactive = no such curve, though single readings can be large; an effect the other way counts as inactive or inconclusive.
# Experiments:
# [1] = qHTS assay to identify small molecule antagonists of the peroxisome proliferator-activated receptor gamma (PPARg) signaling pathway - cell viability counter screen (AID 743194); conditions: PPARg-bla HEK293H viability, CellTiter-Glo luminescence, 17 h; Potency: co-treated with 50 nM rosiglitazone unless noted; activity change, negative = cytotoxicity: at 62.6 µM (top of the series), co-treated with 50 nM rosiglitazone unless noted; note: nearly all actives have a fitted effect of over 55% in size
# How it was run: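 PPARg-UAS-bla HEK293H cells were plated, rested 5 h at 37 C, then treated with compounds plus rosiglitazone (50 nM final) for 17 h at 37 C; viability was then read by CellTiter-Glo luminescence after 30 min at room temperature.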
# [2] = qHTS assay for small molecule agonists of the antioxidant response element (ARE) signaling pathway (AID 743202; active = well fitted activation curve with a large enough effect in the signal ratio in the repeat runs, not every such curve was filed as active; inconclusive = weak or mixed curves, or effect the other way; inactive = no such curve, though single readings can be large or run the other way; the % refers to the signal ratio); conditions: HepG2 ARE-bla reporter, beta-lactamase FRET, 16 h; activation: at 73.3 µM (top of the series) unless noted
# How it was run: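 Read-out: LiveBLAzer B/G FRET substrate fluorescence after 2 h at room temperature, following 16 h compound treatment at 37 C of HepG2 cells carrying an ARE-driven beta-lactamase reporter.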
# [3] = qHTS assay for small molecule activators of the heat shock response signaling pathway - cell viability counter screen (AID 743209); conditions: HSE-bla HeLa viability, CellTiter-Glo luminescence, 5 h; activity change, negative = cytotoxicity: at 62.6 µM (top of the series) unless noted; note: nearly all actives have a fitted effect of over 50% in size
# How it was run: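 Counter screen for cytotoxicity in HeLa HSE-bla reporter cells. Treatment was 5 h at 37 C; viability was detected by luminescent ATP assay (CellTiter-Glo) in the same wells as the beta-lactamase read.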
# [4] = qHTS assay to identify small molecule agonists of the peroxisome proliferator-activated receptor delta (PPARd) signaling pathway - cell viability counter screen (AID 743211); conditions: PPARd-bla HEK293H viability, CellTiter-Glo luminescence, 17 h; activity change, negative = cytotoxicity: at 62.6 µM (top of the series); note: nearly all actives have a fitted effect of over 55% in size
# How it was run: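 qHTS cell viability: PPARd-bla HEK293H; 17 h cpd, 37C; CellTiter-Glo, luminescence at 30 min RT.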
# [5] = biological target: Peroxisome proliferator-activated receptor delta (Homo sapiens) (UniProt Q03181); assay: qHTS assay to identify small molecule agonists of the peroxisome proliferator-activated receptor delta (PPARd) signaling pathway (AID 743212; calls by dose curve); conditions: HEK293H PPARd-UAS-bla, beta-lactamase FRET ratio, 17 h; activation: at 62.6 µM (top of the series) unless noted
# How it was run: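 GeneBLAzer PPARd UAS-bla HEK293H cells (beta-lactamase reporter under UAS control), plated and rested 5 h at 37 C, then exposed to compounds in DMSO at 37 C; LiveBLAzer B/G FRET substrate added, 2 h room temperature, fluorescence read.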
# [6] = qHTS assay to identify small molecule antagonists of the peroxisome proliferator-activated receptor delta (PPARd) signaling pathway - cell viability counter screen (AID 743213); conditions: PPARd-bla HEK293H viability, CellTiter-Glo luminescence, 17 h; viability change, negative = cytotoxic: at 62 µM (top of the series) unless noted; note: nearly all actives have a fitted effect of over 50% in size
# How it was run: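 HEK293H PPARd UAS-bla cells, 5 h pre-incubation, compound + L165041 300 nM final, 17 h 37 C; B/G FRET substrate 2 h RT; then CellTiter-Glo 30 min RT, luminescence.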
# [7] = biological target: Bile acid receptor (Homo sapiens) (UniProt Q96RI1); assay: qHTS assay to identify small molecule antagonists of the farnesoid-X-receptor (FXR) signaling pathway (AID 743217; active = well fitted inhibition curve with a large enough effect in the signal ratio in the repeat runs, not every such curve was filed as active; inconclusive = weak or mixed curves, or effect the other way; inactive = no such curve, though single readings can be large or run the other way; the % refers to the signal ratio); conditions: HEK293T FXR-UAS-bla, beta-lactamase ratio, CDCA-stimulated, 16 h; activity change, negative = inhibition: at 62.6 µM (top of the series) unless noted
# How it was run: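 In this cell-based antagonist screen, inhibition of CDCA-driven (50 uM final) UAS-beta-lactamase expression in HEK 293T cells was measured by FRET fluorescence following 16 h compound exposure at 37 °C.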
# [8] = qHTS assay for small molecule activators of the heat shock response signaling pathway (AID 743210; active = well fitted activation curve with a large enough effect in the signal ratio in the repeat runs, with a control signal flat, not every such curve was filed as active; inconclusive = weak or mixed curves; the % refers to the signal ratio); conditions: HeLa HSE-bla reporter, beta-lactamase ratio, 5 h; activation: at 62.6 µM (top of the series) unless noted
# How it was run: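 HSE-bla HeLa cells (beta-lactamase reporter under heat shock response elements) were exposed to compounds for 5 h at 37 C, then loaded with LiveBLAzer B/G FRET substrate for 2.5 h at room temperature before fluorescence reading.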
# [9] = biological target: Peroxisome proliferator-activated receptor delta (Homo sapiens) (UniProt Q03181); assay: qHTS assay to identify small molecule antagonists of the peroxisome proliferator-activated receptor delta (PPARd) signaling pathway (AID 743215; active = well fitted inhibition curve with a large enough effect in the signal ratio in the repeat runs, not every such curve was filed as active; inconclusive = weak or mixed curves, or effect the other way; inactive = no such curve, though single readings can be large or run the other way; the % refers to the signal ratio;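 note: cells stimulated with agonist L165041 at 300 nM final during compound exposure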); conditions: HEK293H PPARd-UAS-bla, beta-lactamase FRET ratio, antagonist, 17 h; ratio activity, negative = inhibition: at 62 µM (top of the series) unless noted
# How it was run: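 With L165041 present at 300 nM final, compounds were incubated 17 h at 37 C on PPARd UAS-bla HEK293H cells. A FRET-based beta-lactamase substrate was then applied for 2 h at room temperature and fluorescence intensity recorded.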
# % is set by controls: 0 for no effect and ±100 for the full control effect; potency is the fitted concentration of half-maximal effect; tags give direction and shape of the fitted curve or compound fluorescence and quenching.
# Sequence of UniProt Q96RI1 (Q96RI1 whole entry, looked up): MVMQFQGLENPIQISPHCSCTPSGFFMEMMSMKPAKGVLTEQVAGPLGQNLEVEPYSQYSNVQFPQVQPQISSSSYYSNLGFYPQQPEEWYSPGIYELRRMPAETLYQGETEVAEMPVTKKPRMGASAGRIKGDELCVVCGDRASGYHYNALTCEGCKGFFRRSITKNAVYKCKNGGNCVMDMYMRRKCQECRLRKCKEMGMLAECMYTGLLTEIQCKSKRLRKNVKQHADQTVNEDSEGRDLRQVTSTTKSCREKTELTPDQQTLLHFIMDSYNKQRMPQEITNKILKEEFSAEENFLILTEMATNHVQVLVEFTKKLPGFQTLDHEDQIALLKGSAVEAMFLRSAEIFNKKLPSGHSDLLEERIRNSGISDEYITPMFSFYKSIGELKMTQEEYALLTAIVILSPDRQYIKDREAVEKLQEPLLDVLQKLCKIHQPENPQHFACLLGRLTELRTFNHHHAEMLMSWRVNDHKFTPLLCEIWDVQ
# Sequence of UniProt Q03181 (Q03181 whole entry, looked up): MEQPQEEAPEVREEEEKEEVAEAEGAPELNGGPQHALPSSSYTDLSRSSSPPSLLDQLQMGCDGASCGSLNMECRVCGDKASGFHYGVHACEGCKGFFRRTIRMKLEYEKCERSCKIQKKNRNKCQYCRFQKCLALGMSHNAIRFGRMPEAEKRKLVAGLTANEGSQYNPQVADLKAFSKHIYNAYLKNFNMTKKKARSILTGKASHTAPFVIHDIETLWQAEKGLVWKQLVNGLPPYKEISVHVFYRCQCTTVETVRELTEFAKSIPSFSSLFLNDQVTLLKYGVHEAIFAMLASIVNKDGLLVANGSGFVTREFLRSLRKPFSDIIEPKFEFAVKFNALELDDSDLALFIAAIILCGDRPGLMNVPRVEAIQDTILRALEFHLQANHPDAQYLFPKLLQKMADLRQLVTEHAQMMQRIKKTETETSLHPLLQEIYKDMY
structure (smiles),measurement,setting,value
CCCCC(CC)COC(=O)c1ccccc1C(=O)OCC(CC)CCCC (stereo not drawn),Potency,[1],"inconclusive: 3.89 µM [rising, full curve, poor fit]"
same,Potency,[2],"inconclusive: 68.6 µM [rising, partial curve, poor fit]"
same,Potency,[3],"inconclusive: 19.5 µM [rising, full curve, poor fit]"
same,Potency,[4],"inconclusive: 8.71 µM [cytotoxic, full curve, poor fit]"
same,Potency,[5],"inconclusive: 54.9 µM [rising, single point]"
same,Potency,[6],"inconclusive: 13.8 µM [cytotoxic, full curve, poor fit]"
same,Potency,[7],"inconclusive: 3.89 µM [inhibitor, partial curve, poor fit]"
OC(c1ccc(Cl)cc1)(c1ccc(Cl)cc1)c1cccnc1,Potency,[1],"inconclusive: 49 µM [cytotoxic, single point]"
same,Potency,[2],"inconclusive: 68.6 µM [falling, single point]"
same,Potency,[8],inconclusive: 38.9 µM
same,Potency,[7],inconclusive: 61.6 µM [inhibitor]
C#CCOS(=O)OC1CCCCC1Oc1ccc(C(C)(C)C)cc1 (stereo not drawn),Potency,[1],"inconclusive: 1.1 µM [cytotoxic, full curve] and active: 2.45 µM"
same,Potency,[2],active: 970 nM and active: 1.72 µM
same,activation,[8],inconclusive: 0.0275%
same,Potency,[4],active: 24.5 µM
same,Potency,[6],"inconclusive: 54.9 µM [cytotoxic, single point]"
same,Potency,[9],"inconclusive: 30.9 µM [rising, partial curve]"
same,Potency,[7],"inconclusive: 49 µM [rising, partial curve, poor fit]"
CC(C)(O)c1cnn2c(-c3ccc(F)c(-c4c(F)cccc4C#N)c3)cnc2n1,Potency,[1],inactive
same,Potency,[2],inconclusive: 68.6 µM [single point]
same,Potency,[8],"inconclusive: 54.9 µM [fluorescent, single point]"
same,"activity change, negative = cytotoxicity",[4],inconclusive: -35.1% [cytotoxic]
same,Potency,[5],inconclusive: 54.9 µM
same,Potency,[9],inconclusive: 54.9 µM [fluorescent]
same,Potency,[7],inconclusive: 54.9 µM [partial curve]
Clc1ccc(-c2ccc(Cl)c(Cl)c2Cl)c(Cl)c1Cl,Potency,[1],"inconclusive: 58.7 µM [cytotoxic, single point]"
same,Potency,[2],"inconclusive: 13 µM [rising, full curve, poor fit]"
same,Potency,[8],"inconclusive: 58.7 µM [falling, single point]"
same,Potency,[5],"inconclusive: 20.8 µM [rising, single point]"
same,Potency,[9],inactive
same,"activity change, negative = inhibition",[7],inconclusive: -37.1%
COc1cc(-c2ccc(N)c(OC)c2)ccc1N,Potency,[1],"inconclusive: 8.74 µM [cytotoxic, full curve, poor fit]"
same,activation,[2],inconclusive: 0.414% [at 94.8 µM]
same,Potency,[8],inconclusive: 27.3 µM [cytotoxic]
same,Potency,[5],inconclusive: 52.5 µM
Oc1cc(Cl)cc(Cl)c1,Potency,[1],"inconclusive: 62.3 µM [cytotoxic, single point]"
same,activation,[2],inconclusive: 6.75% [at 94.8 µM]
same,Potency,[3],"inconclusive: 2.78 µM [rising, partial curve, poor fit]"
same,"ratio activity, negative = inhibition",[9],inconclusive: 13% [at 80.4 µM]
CCC[CH2][Sn]([CH2]CCC)([CH2]CCC)[O]C(=O)c1ccccc1,Potency,[1],active: 0.49 µM
same,Potency,[2],"inconclusive: 0.273 µM [falling, full curve]"
same,Potency,[3],active: 1.38 µM
same,Potency,[4],active: 0.616 µM
same,Potency,[6],active: 1.38 µM
CC(C)(C)c1ccc(OP(=O)(Oc2ccccc2)Oc2ccccc2)cc1,Potency,[1],"inconclusive: 0.22 µM [rising, partial curve]"
same,Potency,[2],"inconclusive: 61.5 µM [rising, single point]"
same,Potency,[3],"inconclusive: 19.6 µM [cytotoxic, partial curve, poor fit]"
same,Potency,[4],"inconclusive: 34.9 µM [cytotoxic, partial curve, poor fit]"
same,Potency,[7],active: 24.7 µM
CCCSP(=O)(OCC)Oc1ccc(Br)cc1Cl (stereo not drawn),Potency,[1],"inconclusive: 23.8 µM [cytotoxic, single point]"
same,activation,[2],inconclusive: 19.5%
same,Potency,[3],inactive
same,Potency,[6],"inconclusive: 0.532 µM [cytotoxic, single point]"
same,"activity change, negative = inhibition",[7],inconclusive: 9.05%
CO/N=C(\C(=O)OC)c1ccccc1CO/N=C(\C)c1cccc(C(F)(F)F)c1,Potency,[1],"inconclusive: 2.45 µM [cytotoxic, full curve, poor fit]"
same,Potency,[2],"inconclusive: 61.1 µM [rising, partial curve, poor fit]"
same,Potency,[8],inconclusive: 54.9 µM
same,Potency,[4],active: 21.9 µM
same,Potency,[6],active: 21.9 µM
same,Potency,[9],active: 4.9 µM
O=[N+]([O-])c1c(Cl)c(Cl)cc(Cl)c1Cl,Potency,[1],"inconclusive: 4.9 µM [cytotoxic, full curve]"
same,Potency,[2],"inconclusive: 9.69 µM [rising, full curve]"
same,Potency,[3],inconclusive: 21.9 µM [cytotoxic]
same,Potency,[5],"inconclusive: 15.5 µM [rising, full curve, poor fit]"
same,"viability change, negative = cytotoxic",[6],inconclusive: -14.4% [at 80.4 µM]
same,"ratio activity, negative = inhibition",[9],inconclusive: -23.1% [at 80.4 µM]
same,"activity change, negative = inhibition",[7],inconclusive: 6.5%
CC(C)(C)CC(C)(C)c1ccc(O)cc1,Potency,[1],"inconclusive: 8.71 µM [rising, full curve, poor fit]"
same,Potency,[2],inconclusive: 27.3 µM and inconclusive: 29.8 µM
same,Potency,[8],inconclusive: 47.9 µM [partial curve] and inconclusive: 33.5 µM
same,Potency,[4],"inconclusive: 33.5 µM [cytotoxic, single point]"
same,Potency,[6],"active: 27.5 µM and inconclusive: 33.5 µM [cytotoxic, single point]"
same,Potency,[9],"inconclusive: 34.7 µM [cytotoxic, partial curve]"
same,Potency,[7],"inconclusive: 56.5 µM [cytotoxic] and inconclusive: 33.5 µM [inhibitor, partial curve, poor fit]"
CC[C@H](C)[C@H]1O[C@]2(C=C[C@@H]1C)C[C@@H]1C[C@@H](C/C=C(\C)[C@@H](O[C@H]3C[C@H](OC)[C@@H](O[C@H]4C[C@H](OC)[C@@H](O)[C@H](C)O4)[C@H](C)O3)[C@@H](C)/C=C/C=C3\CO[C@@H]4[C@H](O)C(C)=C[C@@H](C(=O)O1)[C@]34O)O2,Potency,[1],active: 9.15 µM
same,Potency,[2],"inconclusive: 11.4 µM [falling, full curve]"
same,Potency,[3],active: 12.9 µM
same,Potency,[4],active: 11.5 µM
same,Potency,[6],active: 9.15 µM
CCC[CH2][Sn]([Cl])([CH2]CCC)[CH2]CCC,Potency,[1],active: 1.38 µM and active: 1.1 µM
same,Potency,[2],"inconclusive: 771 nM [falling, full curve] and inconclusive: 1.37 µM [falling, full curve]"
same,Potency,[8],inconclusive: 9.07 µM and inconclusive: 14.3 µM
same,Potency,[4],active: 551 nM and active: 1.23 µM
same,Potency,[5],inconclusive: 5.51 µM and inconclusive: 4.9 µM
same,Potency,[9],"inconclusive: 6.18 µM [cytotoxic] and inconclusive: 6.92 µM [cytotoxic, full curve]"
same,Potency,[7],"inconclusive: 1.1 µM [rising, full curve] and inconclusive: 1.55 µM [rising, full curve]"
Nc1ccccc1-c1ccccc1,Potency,[1],inactive
same,activation,[2],inconclusive: -4.85%
same,activation,[5],inconclusive: -3.58%
OCC(c1ccc(Cl)cc1)c1ccc(Cl)cc1,Potency,[1],"inconclusive: 12.3 µM [cytotoxic, full curve, poor fit]"
same,activation,[2],inconclusive: 27.4%
same,Potency,[8],"inconclusive: 54.9 µM [falling, partial curve]"
same,Potency,[6],"inconclusive: 0.219 µM [cytotoxic, full curve, poor fit]"
same,"activity change, negative = inhibition",[7],inconclusive: -21.6%
CCO/N=C(\CC)C1=C(O)CC(c2c(C)cc(C)cc2C)CC1=O (stereo not drawn),Potency,[1],"inconclusive: 0.0347 µM [rising, full curve, poor fit]"
same,activation,[2],inconclusive: 22.4%
same,Potency,[3],"inconclusive: 0.344 µM [rising, partial curve, poor fit]"
same,activation,[5],inconclusive: 5.82%
same,Potency,[6],"inconclusive: 0.433 µM [cytotoxic, partial curve, poor fit]"
same,Potency,[9],"inconclusive: 12.3 µM [activator, full curve]"
same,"activity change, negative = inhibition",[7],inconclusive: -14.1%
C=CC(=O)OCC(CC)(COC(=O)C=C)COC(=O)C=C,Potency,[1],active: 28.3 µM and active: 9.77 µM
same,Potency,[2],"inconclusive: 3.53 µM [falling, partial curve, poor fit] and inconclusive: 2.73 µM [falling, partial curve, poor fit]"
same,Potency,[8],inconclusive: 10.8 µM and inconclusive: 7.76 µM
same,Potency,[4],"inconclusive: 6.33 µM [cytotoxic, full curve] and active: 11 µM"
same,Potency,[5],"inconclusive: 21.9 µM [falling, full curve, poor fit]"
same,activation,[5],inconclusive: -9.83% [at 81.1 µM]
same,Potency,[6],"inconclusive: 20 µM [cytotoxic, partial curve, poor fit] and active: 13.8 µM"
same,Potency,[9],active: 12.6 µM
same,Potency,[7],inconclusive: 17.4 µM
C=CC(=O)OCC(COC(=O)C=C)(COC(=O)C=C)COC(=O)C=C,Potency,[1],active: 6.92 µM
same,Potency,[2],"inconclusive: 77 µM [falling, single point]"
same,Potency,[8],inconclusive: 4.71 µM
same,Potency,[4],active: 6.92 µM
same,Potency,[5],"inconclusive: 27.5 µM [falling, partial curve, poor fit]"
same,Potency,[6],active: 12.3 µM
same,Potency,[9],inconclusive: 6.16 µM
same,Potency,[7],"inconclusive: 19.5 µM [rising, partial curve]"
